Results reported in the supplement of paper PMC7826260.
Some of the results follow. Viral Rep nickase domains cut single-stranded DNA in vitro (3 µM enzyme, 1 h, 37 °C); shown is the middle of each 90-letter strand. Numbers give uncut DNA relative to the enzyme-free pool, as log2; the lower, the more was cut; hits are not called. Shares of all reads are compared; where an enzyme cuts many sequences, the uncut ones exceed 0.

Legend:
Test in all cases: uncleaved DNA left, log2 of reads against the no-enzyme library (log2 ratio); higher = less cleavage (more negative = more Rep cleavage of the k-mer); sequences stand for … in CTCGTCCG…ACCGGAGA
[1] = test system: T1, Rep nickase domain of Muscovy duck circovirus
T1 sequence (protein, residues 1-111, tag omitted): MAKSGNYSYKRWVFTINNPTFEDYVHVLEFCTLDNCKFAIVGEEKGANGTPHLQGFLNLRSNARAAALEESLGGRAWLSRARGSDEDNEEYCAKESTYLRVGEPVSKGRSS
Method: (§1)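 A pool of 90-nt single-stranded DNAs with seven random bases just before the constant AC of the nick site (name = the seven bases) was cut by 3 µM recombinant His6-SUMO-tagged Rep nickase domain (300 nM DNA, 50 mM HEPES pH 8.0, 50 mM NaCl, 1 mM MnCl2, 1 h, 37 °C, three replicates). Uncut DNA was amplified and sequenced.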

[2] = test system: T2, Rep nickase domain of banana bunchy top virus
T2 sequence (protein, residues 1-94, tag omitted): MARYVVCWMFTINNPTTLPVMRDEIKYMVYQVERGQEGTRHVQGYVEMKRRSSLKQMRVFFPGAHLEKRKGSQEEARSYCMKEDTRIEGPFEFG
Method: as §1

[3] = test system: T3, Rep nickase domain of cabbage leaf curl virus
T3 sequence (protein, residues 1-116, tag omitted): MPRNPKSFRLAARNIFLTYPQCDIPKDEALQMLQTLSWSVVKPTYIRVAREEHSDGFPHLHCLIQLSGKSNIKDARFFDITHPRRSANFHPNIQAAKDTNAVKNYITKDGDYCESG
Method: as §1

[4] = test system: T4, Rep nickase domain of chickpea chlorotic dwarf virus
T4 sequence (protein, residues 1-124, tag omitted): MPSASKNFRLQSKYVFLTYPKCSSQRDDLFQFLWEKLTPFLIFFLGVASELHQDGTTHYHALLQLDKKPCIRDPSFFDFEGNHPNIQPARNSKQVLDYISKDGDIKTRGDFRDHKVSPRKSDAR
Method: as §1

[5] = test system: T5, Rep nickase domain of faba bean necrotic yellows virus
T5 sequence (protein, residues 1-98, tag omitted): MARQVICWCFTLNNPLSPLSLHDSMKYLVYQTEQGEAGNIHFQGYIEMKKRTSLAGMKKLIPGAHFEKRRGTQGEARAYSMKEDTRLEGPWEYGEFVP
Method: as §1

[6] = test system: T6, Rep nickase domain of maize striate mosaic virus
T6 sequence (protein, residues 1-117, tag omitted): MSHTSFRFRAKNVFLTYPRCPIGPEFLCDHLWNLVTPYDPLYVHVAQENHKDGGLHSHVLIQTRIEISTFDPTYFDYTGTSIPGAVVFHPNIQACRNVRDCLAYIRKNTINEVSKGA
Method: as §1

[7] = test system: T7, Rep nickase domain of porcine circovirus 2
T7 sequence (protein, residues 2-116, tag omitted): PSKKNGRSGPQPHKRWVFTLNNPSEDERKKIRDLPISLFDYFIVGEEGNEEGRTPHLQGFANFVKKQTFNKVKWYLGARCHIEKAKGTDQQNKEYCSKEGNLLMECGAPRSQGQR
Method: as §1

[8] = test system: T8, Rep nickase domain of tomato golden mosaic virus
T8 sequence (protein, residues 1-124, tag omitted): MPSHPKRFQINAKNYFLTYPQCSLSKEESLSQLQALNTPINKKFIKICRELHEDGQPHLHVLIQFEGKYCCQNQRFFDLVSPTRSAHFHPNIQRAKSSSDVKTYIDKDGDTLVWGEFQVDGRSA
Method: as §1

[9] = test system: T9, Rep nickase domain of tomato yellow leaf curl virus
T9 sequence (protein, residues 1-136, tag omitted): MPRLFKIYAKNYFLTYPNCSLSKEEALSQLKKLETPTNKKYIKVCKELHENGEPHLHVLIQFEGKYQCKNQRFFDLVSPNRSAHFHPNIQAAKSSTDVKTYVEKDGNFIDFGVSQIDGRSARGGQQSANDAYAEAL
Method: as §1

[10] = test system: T10, Rep nickase domain of wheat dwarf virus
T10 sequence (protein, residues 1-137, tag omitted): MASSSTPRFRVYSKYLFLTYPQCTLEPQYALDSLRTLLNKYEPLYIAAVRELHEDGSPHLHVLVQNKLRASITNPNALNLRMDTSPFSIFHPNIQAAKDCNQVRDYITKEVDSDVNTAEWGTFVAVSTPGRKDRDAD
Method: as §1

Sequence	uncleaved DNA left (log2) [1]	uncleaved DNA left (log2) [2]	uncleaved DNA left (log2) [3]	uncleaved DNA left (log2) [4]	uncleaved DNA left (log2) [5]	uncleaved DNA left (log2) [6]	uncleaved DNA left (log2) [7]	uncleaved DNA left (log2) [8]	uncleaved DNA left (log2) [9]	uncleaved DNA left (log2) [10]
TCCAGTT	-0.0701	-0.0978	-0.199	-1.68	0.0935	-0.533	-0.303	-0.122	-0.136	-0.322
AACAATC	0.0838	0.169	-0.0481	-0.231	0.0803	-0.531	0.102	-0.0377	0.0256	0.106
ATGGCAC	0.0775	0.0673	0.0445	0.0984	0.0173	-0.297	0.00259	0.123	0.138	0.0626
ACATCTT	-2.67	-0.0422	-0.463	-2.66	0.134	-0.754	-3.08	-0.0574	-0.0361	-0.0561
TTAGCCA	-0.0613	0.0138	0.127	-0.682	-0.0333	-0.311	-0.0733	-0.0501	0.0105	-0.00233
ATATAGC	-0.0365	0.0297	-0.515	-0.556	-0.00217	-1.14	0.172	-0.0654	0.14	0.103
AGATCAT	-0.0979	0.0246	0.599	1	-0.158	1.45	-0.319	-0.0916	0.0533	0.171
TGTACCG	-0.0629	-0.0429	-0.805	-0.974	0.00744	-1.03	0.0125	-0.0762	-0.129	-0.148
GGTGGCT	-0.0163	0.0194	0.775	1.63	-0.0961	2.15	0.152	0.0623	0.00768	0.1
TATTTTC	-3.07	-0.647	0.128	-0.615	0.066	-0.641	-1.19	-0.0436	0.161	0.0142
AGGTAGA	-0.0721	-0.0151	-0.124	0.0672	-0.0445	-0.237	-0.0447	-0.0156	-0.0913	-0.119
CGCCAAT	-0.211	-0.187	-0.18	-0.455	-0.202	-0.413	-0.616	-0.387	-0.159	-0.139
ATTTCGA	-0.063	-0.0555	-0.608	-0.685	0.0525	-1.19	0.0685	-0.0385	-0.0463	-0.064
ATAGTTC	-0.00337	-0.0855	-0.129	-1.85	-0.047	-0.728	-0.0514	-0.00971	-0.162	-0.37
TTGGGAA	0.0729	0.0752	0.492	1.35	-0.0167	1.25	0.2	-0.0634	0.0414	0.169
TAGTAGT	-3.71	-3.4	-3.02	-2.63	-3.27	-1.53	-4.41	-1.02	0.0236	-0.731
CCCCCCG	-0.105	0.0337	-0.76	0.147	-0.0625	-0.74	-0.0542	-0.122	-0.0786	-0.136
AGTATCA	0.0305	0.0674	0.566	0.901	-0.0319	1.04	-0.229	-0.0421	0.144	0.175
CGAAACC	-0.0141	-0.0643	0.0137	-0.64	-0.0326	-0.522	-0.489	-0.134	0.0143	0.0713
CAGGCAT	0.0261	0.195	0.321	1.51	0.0495	1.78	0.0665	0.127	-0.00731	0.137
GAGTCTT	-1.51	-2.65	0.234	-0.889	-2.45	1.34	-3.6	-0.168	0.143	0.0237
CCGGTGA	0.0355	0.0378	0.153	0.183	-0.0148	0.0569	0.0387	-0.0372	-0.0918	-0.0183
TCGTATT	-3.94	-3.53	-3.23	-3.08	-3.28	-1.11	-4.03	-1	-0.0204	-1.94
GGCTTCA	-0.0815	-0.0463	0.28	0.72	-0.111	1.47	-0.117	-0.0841	-0.0767	-0.00375
AACAAAT	0.0774	0.0311	-0.107	-1.63	0.0479	-0.478	-2.07	0.19	-0.112	0.0743
TAGCACA	0.00615	0.00655	-0.0583	-2.24	-0.045	0.107	-1.01	0.00405	0.0854	0.045
GAGACGA	0.0501	0.0854	0.691	1.85	0.0409	2	0.0903	0.052	0.035	0.143
CCGGCTG	-0.0669	-0.000642	0.138	0.633	-0.105	1.52	0.0555	0.0929	-0.21	-0.0618
AAGGTTG	0.101	0.00146	0.116	1.01	0.0894	0.771	0.214	0.129	0.00641	0.0129
GAGGGAT	0.04	0.0215	0.212	1.53	-0.0349	1.85	0.0599	0.149	-0.133	0.0539
